From PubChem BioAssay AID686978 (National Center for Advancing Translational Sciences (NCATS), 2013)
Among all 420,000 compounds or so, about 64,000 (15%) were called active. This list was built around the results that the source calls inconclusive (neither active nor inactive); the mix of calls is not that of the screen. Calls come from the whole dose curve; as a rule, active = well fitted inhibition curve with a large enough effect; inconclusive = small, poorly fitted or top-dose-only effect; inactive = flat fitted curve, though single readings scatter. No potency is given beside an inconclusive call; the fits are too rough.

experiment: qHTS for Inhibitors of human tyrosyl-DNA phosphodiesterase 1 (TDP1): qHTS in cells in absence of CPT; conditions: DT40 Tdp1-/- hTDP1 cells, no CPT, ATP luminescence, 48 h; activity change, negative = growth inhibition: at 46.2 µM (top of the series) unless noted; note: nearly all actives have a fitted effect of over 55% in size
Method in brief: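 Chicken DT40 Tdp1-/- cells stably complemented with human TDP1 were seeded at 400 cells/well with DMSO in place of 20 nM camptothecin. After compound pinning, cells grew at least 48 hr at 37 °C; viability read by CellTiter-Glo luminescence.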
% is set by controls: 0 for no effect and ±100 for the full control effect; potency is the fitted concentration of half-maximal effect; tags give direction and shape of the fitted curve.

| Compound | Potency | activity change, negative = growth inhibition |
| --- | --- | --- |
| COc1ccc(C(=O)N(c2ccccc2)c2nccc3ccccc23)cc1OC | inconclusive [inhibitor, partial curve, poor fit] |  |
| Cc1ccc(S(=O)(=O)N2CCC(C(=O)Nc3nnc(COc4ccccc4)s3)CC2)cc1 | inconclusive [inhibitor, partial curve, poor fit] |  |
| COc1ccc2c(CC(=O)OCC(=O)Nc3cc(C)c(C)cc3[N+](=O)[O-])coc2c1 |  | inactive: 7.24% |
| CCOc1ccc(OCCC(=O)N(CC)CC(=O)Nc2ccccc2OC)cc1 | inconclusive [inhibitor, single point] |  |
| COc1ccccc1/C=N/NC(=S)Nc1cccnc1 | inconclusive [inhibitor, single point] |  |
| CNCCNC[C@H](Cc1cccc2ccccc12)NCCc1ccccc1 | inconclusive [inhibitor, single point] |  |
| CCN(c1ccccc1)S(=O)(=O)c1ccc(Cl)c(NC(=O)COC(=O)c2ccc(Cl)c(N)c2)c1 | inconclusive [inhibitor, partial curve, poor fit] |  |
| CCOC(=O)C1=C(c2ccccc2)NC(=S)NC1c1ccc(C)c([N+](=O)[O-])c1 (configuration not stated) | active: 16.4 µM |  |
| COc1ccc2nc(NC(=O)c3ccccc3F)sc2c1 | inconclusive [inhibitor, single point] |  |
| CC(C)c1ccc(Cn2c(COc3ccccc3)nc3ccccc32)cc1 | active: 20.6 µM |  |
| COC(=O)c1ccccc1NC(=O)C1CC(=O)N(c2ccc(OC)cc2)C1 (configuration not stated) | inconclusive [inhibitor, single point] |  |
| C[C@H](CO)N1C[C@H](C)[C@@H](CN(C)Cc2ccc(F)cc2)Oc2ncc(Br)cc2C1=O |  | inconclusive: -31.5% [inhibitor] |
| C=CCn1c(Oc2ccccc2F)nc2c1c(=O)n(C)c(=O)n2C |  | inactive: -25.5% |
| COc1ccc(N2CCN(C(=O)c3ccc(CSc4ccccc4)cc3)CC2)cc1 |  | inactive: -25.9% |
| CCn1nc(C)c2c(-c3ccccc3)cc(=O)n(C(C)C(=O)NCCC(C)C)c21 (configuration not stated) | inconclusive [inhibitor, single point] |  |
| CC(=O)N1CCCc2cc(S(=O)(=O)N(C)Cc3ccccc3)ccc21 | active: 20.6 µM |  |
| COc1ccccc1CN(C(=O)CCl)C(C(=O)NC1CCCCC1)c1ccncc1 (configuration not stated) |  | inactive: 3.36% |
| Cc1ccc(S(=O)(=O)NC2CCCC2)cc1C(N)=O |  | inactive: 2.24% |
| CC1=C/C(=N\NC(=O)c2ccc(O)cc2)CC1 |  | inactive: 1.6% |
| COc1ccc(CN2CCC(n3cc(C(=O)N4CCCC4)nn3)CC2)c(OC)c1C |  | inactive: -18.7% |
| O=C(CCC(F)(F)F)N1CCCC(CO)(CCc2ccccc2)C1 (configuration not stated) |  | inactive: -5.03% |
| O=C(NCc1cc(C(F)(F)F)cc(C(F)(F)F)c1)C1CC(c2cccc(F)c2)=NO1 (configuration not stated) | inconclusive [inhibitor, single point] |  |
| O=C(COc1ccc(/C=N/NS(=O)(=O)c2ccccc2)cc1)NCc1ccccc1 |  | inactive: -28.3% |
| C=CCn1c(C)cc(C(=O)Cn2ncc(Cl)c(Cl)c2=O)c1C | active: 4.11 µM |  |

| Compound | Potency | activity change, negative = growth inhibition |
| --- | --- | --- |
| O=C(NCCN1CCN(Cc2ccccc2)CC1)c1ccc(CS(=O)(=O)c2c(Cl)cccc2Cl)o1 | inconclusive [inhibitor, single point] |  |
| CC1(NC(=O)c2cccc(S(=O)(=O)N3CCN(c4ccccc4)CC3)c2)CCS(=O)(=O)C1 (configuration not stated) | inconclusive [inhibitor, single point] |  |
| CCc1ccc(OC(C)C(=O)N2CCC(c3nc4ccccc4o3)CC2)cc1 (configuration not stated) | inconclusive [inhibitor, partial curve] |  |
| Cc1ccc(S(=O)(=O)Nc2ccc(S(=O)(=O)N3CCOCC3)cc2)cc1 |  | inactive: -2.91% |
| Cc1ccc(C(=O)Nc2ccc3c(c2)n(C)c(=O)c(=O)n3C)cc1 | inconclusive [inhibitor, single point] |  |
| Cc1cc(S(=O)(=O)NCc2cccnc2)ccc1-n1cnnn1 |  | inactive: -13.6% |
| CC1CCN(Cc2c(O)ccc3c(=O)c(Oc4ccccc4Cl)c(C(F)(F)F)oc23)CC1 | active: 20.6 µM |  |
| Cc1ccc2c(c1)c1c3n2CCN(C(=O)C2CC2)C3CCC1 (configuration not stated) | inconclusive [inhibitor, single point] |  |
| CC(C)OC(=O)c1ccc(NC(=O)c2ccccc2)cc1 | inconclusive [inhibitor, single point] |  |
| Cc1ccc(C(=O)COC(=O)c2nc(Cl)ccc2Cl)cc1 |  | inactive: 0.949% |
| O=C(Nc1ccc(Cl)cn1)C1CCN(c2ncnc3c2nc2n3CCCCC2)CC1 | active: 16.4 µM |  |
| CCN(CC(=O)Nc1ccc(NC(C)=O)cc1)C(=O)C1CC(=O)N(Cc2ccc(C)cc2)C1 (configuration not stated) |  | inactive: -11.4% |
| CC[C@H]1c2[nH]c3ccccc3c2C[C@@H]2C(=O)N(c3ccc(F)cc3)C(=O)N21 | inconclusive [inhibitor, single point] |  |
| Cc1ccc(S(=O)(=O)N(C)C)cc1NC(=O)Cn1c(CN2CCOCC2)nc2ccccc2c1=O |  | inactive: -0.283% |
| Cc1ccc(NC(=O)Cn2c(=O)n(Cc3nc(-c4ccccc4)no3)c(=O)c3cc4c(cc32)OCO4)cc1F | inconclusive [inhibitor, partial curve] |  |
| C[C@@H]1CN([C@H](C)CO)C(=O)CCCn2nncc2CO[C@H]1CN(C)Cc1cccnc1 |  | inactive: -27.6% |
| Cc1ccc(OCC(=O)Nc2ccccc2C(=O)NC2CC2)cc1C |  | inactive: -18.6% |
| CCOc1ccc(S(=O)(=O)Nc2nccs2)cc1 |  | inactive: -9.33% |
| CCOC(=O)c1c(C(=O)OCC)c(C)n(CCc2ccccc2)c1C | inconclusive [inhibitor, single point] |  |
| O=C(NCc1ccccc1C(F)(F)F)c1cccc2c1C(=O)c1ccc(N3CCC(N4CCCCC4)CC3)cc1S2(=O)=O | active: 3.66 µM |  |
| Cc1nn(CC(=O)OCC(=O)NCCc2ccc(F)cc2)c(C)c1[N+](=O)[O-] |  | inactive: 17.6% |
| CN(C)c1ccc(/C=C2/C[N+](C)(C)C/C(=C/c3ccc(N(C)C)cc3)C2=O)cc1 | active: 3.66 µM |  |
| Cc1ccc(C(=O)/C=C/c2ccccc2)o1 | active: 14.6 µM |  |
